Data reported in PubChem BioAssay AID2676 (National Center for Advancing Translational Sciences (NCATS), 2010).
Screen size: about 370,000 compounds; about 1,100 (0.3%) were called active. Inconclusive means that the source gave no clear call. Such entries were picked first, then a sample of the others. Calls follow the shape of the dose curve; as a rule, active = well fitted activation curve with a large enough effect; inconclusive = small, poorly fitted or top-dose-only effect; inactive = flat fitted curve, though single readings scatter. Where the call is inconclusive, the potency comes from a doubtful curve fit.

target: Relaxin receptor 1 (Homo sapiens) (UniProt Q9HBX9); assay: qHTS Assay for Agonists of the Relaxin Receptor RXFP1; conditions: HEK293T-RXFP1 cAMP TR-FRET, 30 min; series mostly up to 57.5 µM; also: nearly all actives have a fitted effect of over 60% in size
Summary of the method: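 HEK293T cells stably expressing RXFP1 were pretreated with the PDE4 inhibitor Ro 20174, exposed to compounds for 30 min at 37C, lysed, and cAMP was read by TR-FRET. Data normalized to buffer (basal) and 29 nM porcine relaxin (100%).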
Potency is read from the fitted curve at half-maximal effect; tags tell the direction and shape of the fitted curve.

Chain of UniProt Q9HBX9 (Q9HBX9 whole entry, looked up): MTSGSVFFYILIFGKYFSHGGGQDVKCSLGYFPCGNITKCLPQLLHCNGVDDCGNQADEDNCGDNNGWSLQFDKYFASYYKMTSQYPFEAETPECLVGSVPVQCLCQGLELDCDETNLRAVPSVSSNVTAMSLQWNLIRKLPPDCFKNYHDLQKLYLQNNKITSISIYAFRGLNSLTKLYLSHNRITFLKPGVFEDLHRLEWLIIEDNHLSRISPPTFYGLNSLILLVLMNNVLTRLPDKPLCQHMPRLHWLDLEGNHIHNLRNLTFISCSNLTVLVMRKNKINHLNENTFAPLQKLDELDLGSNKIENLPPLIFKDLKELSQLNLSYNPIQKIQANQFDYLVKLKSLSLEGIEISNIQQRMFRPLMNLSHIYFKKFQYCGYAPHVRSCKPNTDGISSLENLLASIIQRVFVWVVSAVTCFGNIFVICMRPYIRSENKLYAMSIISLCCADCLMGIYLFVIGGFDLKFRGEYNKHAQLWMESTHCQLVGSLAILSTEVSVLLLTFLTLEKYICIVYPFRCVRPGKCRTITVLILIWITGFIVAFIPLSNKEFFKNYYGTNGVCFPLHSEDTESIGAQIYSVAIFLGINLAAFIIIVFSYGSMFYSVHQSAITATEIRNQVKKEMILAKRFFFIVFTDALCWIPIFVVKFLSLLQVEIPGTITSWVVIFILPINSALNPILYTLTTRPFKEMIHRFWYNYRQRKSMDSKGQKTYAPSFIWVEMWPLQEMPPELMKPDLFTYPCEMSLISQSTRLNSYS

SMILES | Potency
COc1cc(OC)cc(-n2nnnc2SCC(=O)Nc2ccc(C(C)=O)cc2)c1 | inconclusive: 14.1 µM [activator, partial curve]
Cc1cc(Nc2ccc(C(=O)O)c(O)c2)n2ncnc2n1 | inconclusive: 17.8 µM [activator, partial curve]
CC(=O)c1sc(NC(=O)c2ccccc2F)nc1-c1ccccc1 | inconclusive: 39.8 µM [activator, single point]
COc1ccc(CCn2c3c(c(=O)[nH]c2=O)C(NC(=O)c2ccc(C(C)(C)C)cc2)(C(F)(F)F)C(=O)N3)cc1OC (stereo not drawn) | inactive
CC(C)(C)c1ccc(C(=O)Nc2sc3c(c2C#N)CCC(C(C)(C)C)C3)cc1 (stereo not drawn) | inactive
COc1ccc(CNC(=O)c2oc3c(c2C)-c2nn(Cc4ccc(Cl)cc4)cc2CC3)cc1 | inconclusive: 5.01 µM [activator, full curve]
CCOc1ccc(NC(=O)c2c(NC(=O)Cc3ccccc3)sc3c2CCCCC3)cc1 | inconclusive: 39.8 µM [activator, single point]
CC(=O)N1CCc2c(sc(NC(=O)c3cccc(N4C(=O)CCC4=O)c3)c2C(N)=O)C1 | inconclusive: 28.2 µM [activator, partial curve]
c1c2c(cc3sc(N4CCOCC4)nc13)OCO2 | inactive
Fc1cccc(-c2nnn3c2nc(NC2CCCCC2)c2ccccc23)c1 | inconclusive: 35.5 µM [activator, single point]
COc1cccc(-n2nc3c(-n4ncc(C#N)c4N)nnc(C)c3c2C)c1 | inconclusive: 15.8 µM [activator, partial curve]
COc1ccc(-c2nc3ccccc3s2)cc1NC(=O)c1ccccc1F | inconclusive: 31.6 µM [activator, single point]
Cc1cc(OCC(=O)Nc2cc(-c3nc4ncccc4o3)ccc2C)ccc1Cl | inconclusive: 31.6 µM [activator, single point]
O=C(O)c1sc2cccc(Cl)c2c1Cl | inactive
CCOc1ccc(NC(=O)Cn2c(=O)n(CCCCCC(=O)NCc3ccccc3)c(=O)c3sccc32)cc1 | inactive
CCOC(=O)CNC(=O)Cn1cnc2c(nnn2-c2ccc(OC)cc2)c1=O | inconclusive: 28.2 µM [activator, partial curve]
Cn1c(N)c(C(=O)CSc2nn(-c3ccccc3)c(=S)s2)c(=O)n(C)c1=O | inconclusive: 17.8 µM [activator, partial curve]
CC(C)NC(=O)N1[C@H](c2cccs2)[C@@H](C)C(=O)[C@@H](C)[C@@H]1c1cccs1 | inconclusive: 35.5 µM [activator, single point]
